According to PubChem BioAssay AID493208 (National Center for Advancing Translational Sciences (NCATS), 2011):
In all, about 44,000 compounds went through this assay and about 340 (0.77%) were called active. About 5% were inconclusive and are not listed. Calls come from the whole dose curve; as a rule, active = well fitted inhibition curve with a large enough effect; inconclusive = small, poorly fitted or top-dose-only effect; inactive = flat fitted curve, though single readings scatter. Some of the results follow.

Assay: Acumen qHTS Assay for Inhibitors of the mTORC1 Signaling Pathway in MEF (Tsc2-/-, p53-/-) Cells: Sytravon;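 note: plate controls were DMSO for no effect and rapamycin for full effect; nearly all actives have a fitted effect of over 50% in size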
Details: phospho-rpS6 immunofluorescence/PI, 24 h; series mostly up to 38.3 µM; activity change, negative = inhibition: at the top concentration
Procedure, shortened: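 Read-out: phospho-S6 Alexa-488 intensity over PI intensity per well, scored as % active cells using thresholds from rapamycin (7.5 nM) and DMSO controls. Tsc2-/-, p53-/- MEFs exposed to compound for 24 h; PI cell count recorded as viability.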

| SMILES | activity change, negative = inhibition |
| --- | --- |
| COc1ccc(CNC(=O)CN(c2ccc(C)cc2)S(=O)(=O)c2c(C)n[nH]c2C)cc1 | inactive: -7.61% |
| CCOc1ccc(NC(=O)Cn2c(=O)n(-c3ccc(C)cc3)c(=O)c3cc(OC)c(OC)cc32)cc1 | inactive: 6.21% |
| COc1ccc(CNC(=O)c2cc3c(-c4ccccc4F)nn(C)c3s2)c(OC)c1 | inactive: -5.33% |
| COc1ccccc1N1CCN(C(=O)C2CCN(S(=O)(=O)c3cnc[nH]3)CC2)CC1 | inactive: 0.0002% |
| CCOC(=O)c1c(NC(C)=O)c2c3c(sc2n1Cc1nc(-c2ccccc2OCC)oc1C)CCCC3 | inactive: -0.881% |
| COc1cccc(NC(=O)Cn2cc(C(=O)C3CCCCC3)c3ccccc32)c1 | inactive: -5.37% |
| Cc1ccc(C)c(N2CCN(C(=O)c3cnc4c(-c5ccccc5)c(C)nn4c3C)CC2)c1 | inactive: 7.13% |
| Cc1ccc(/C=C(\C#N)C(=O)Nc2cc(C)ccc2C)cc1 | inactive: -3.75% |
| Cc1ccc(C)c(CN2C(=O)c3ccccc3S(=O)c3ccc(C(=O)NCc4ccccc4Cl)cc32)c1 (stereo not given) | inactive: 4.64% |
| COc1cccc(CNC(=O)CN2C(=O)N(c3cc(C)ccc3C)S(=O)(=O)c3ccccc32)c1OC | inactive: -0.0246% |
| O=C(Nc1ccc(-c2cc(C(F)(F)F)nn2-c2ccccc2)cc1)c1cccc(F)c1 | inactive: 3% |
| CCN(CC)c1ccc(C(=O)NCc2ccc3c(c2)CCN3C(=O)c2ccccc2)cc1 | inactive: -6.53% |
| Brc1ccccc1-n1ncc2c1ncn1nc(Cc3ccccc3)nc21 | inactive: 0.683% |
| Cc1ccc2c(c1)N(C(=O)CCC(=O)Nc1ccccc1Cl)CC(C)O2 (stereo not given) | inactive: 3.69% |
| O=c1cc(CSc2ncn[nH]2)[nH]c2c(Cl)cccc12 | inactive: 5.81% |
| O=C(CC1N=C2c3ccccc3N=C(SCc3ccc(Cl)cc3)N2C1=O)NCCc1ccccc1 (stereo not given) | inactive: -0.524% |
| COc1ccc(OC)c(Nc2nc(-c3ccc(C)cc3)nc3ccccc23)c1 | inactive: 3.4% |
| CCOC(=O)c1c(C)[nH]c(C)c1S(=O)(=O)NCC(=O)Nc1cccc(C(F)(F)F)c1 | inactive: -9.17% |
| O=C(CSc1nnc(NC(=O)NC2CCCCC2)s1)Nc1ccccc1F | inactive: 0.584% |
| CCOc1ccc(C2c3c(-c4ccc(C)cc4)n[nH]c3C(=O)N2c2ccc(Cl)cc2)cc1 (stereo not given) | inactive: -2.41% |
| CC1CCCN(C(=O)Cn2c(=O)oc3cc(S(=O)(=O)N4CCCCC4)ccc32)C1 (stereo not given) | inactive: 0.518% |
| COc1ccc(-n2c(=O)c3sc4ccccc4c3n(CC(=O)Nc3cccc(C)c3)c2=O)cc1 | inactive: -1.09% |
| Cc1ccc(-c2nnc(Nc3ccc(Br)cc3)c3ccccc23)cc1S(=O)(=O)N1CCOCC1 | inactive: 0.956% |
| COc1ccccc1NC(=O)c1cc(S(=O)(=O)N(C)C2CCCCC2)ccc1F | inactive: 11.6% |

| SMILES | activity change, negative = inhibition |
| --- | --- |
| Cc1ccc(NC(=O)C(Cc2ccccc2)NS(=O)(=O)c2ccc3c(c2)oc(=O)n3C)c(Cl)c1 (stereo not given) | inactive: -0.457% |
| COCCNC(=O)Cn1cc(S(=O)(=O)Cc2ccccc2Cl)c2ccccc21 | inactive: -1.78% |
| CCOC(=O)N1CCc2c(sc3c2c(=O)n(CCc2ccccc2)c(=O)n3Cc2cc(C)ccc2C)C1 | inactive: 6.19% |
| CC1=C(C(=O)Nc2ccccc2C)C(c2cccnc2)n2nc(SCc3ccccc3)nc2N1 (stereo not given) | inactive: -0.321% |
| CCOc1ccccc1NC(=O)c1cn(C2CCCC2)c(=O)c2c1c1ccccc1n2C | inactive: -5.97% |
| COc1ccccc1NC(=O)C1=C(C)Nc2nc(SCc3ccccc3)nn2C1c1ccccn1 (stereo not given) | inactive: 0.472% |
| CCN(CC)S(=O)(=O)c1ccc2c(c1)N(CC(=O)NCCc1ccc(OC)c(OC)c1)C(=O)CO2 | inactive: -2.62% |
| Cc1nnc(NC(=O)CSc2nccn2-c2cccc(Cl)c2)s1 | inactive: -11.1% |
| CC1CCCN(S(=O)(=O)c2cc3c(cc2Cl)NC(=O)CO3)C1 (stereo not given) | inactive: 3.76% |
| Cc1nc2c(c(C)c1CCC(=O)Nc1cccc(C(F)(F)F)c1)c(=O)n(C)c(=O)n2C | inactive: -6.68% |
| O=C(CCC(=O)N1CC2CCCN2c2ccccc21)NCc1ccccc1Cl (stereo not given) | inactive: -13.6% |
| COc1ccc(-c2cc(=O)n3[nH]cnc3n2)cc1 | inactive: -0.333% |
| COc1ccc(C(=O)Nc2ccccc2C(=O)OCc2cc(=O)n3c4c(sc3n2)CCCC4)cc1 | inactive: 0% |
| COc1cc(OC)c(Nc2nc3ccc(C)cc3n3nnnc23)cc1Cl | inactive: -3.34% |
| COc1ccccc1CNc1nc2nc(C)c(Cl)c(C)n2n1 | inactive: -8.21% |
| Cc1cccc(-c2nc(SCC(=O)Nc3cc(C)on3)c3c(=O)n(C)c(=O)n(C)c3n2)c1 | inactive: 0.321% |
| COc1ccc(N2CCN(c3ccc(-c4nc(-c5ccccc5C)no4)cc3[N+](=O)[O-])CC2)cc1 | inactive: 0.306% |
| Cc1ccc(NC(=O)N2CCC(N3CCN(Cc4ccccc4)C(=O)C3=O)CC2)cc1Cl | inactive: -11.7% |
| CCCCCn1c(=O)[nH]c2cc(C(=O)Nc3cc(OC)cc(OC)c3)ccc2c1=O | inactive: 0.996% |
| Cc1cccc(CNC(=O)C2CCCN(S(=O)(=O)c3cn(C)cn3)C2)c1 (stereo not given) | inactive: 0% |
| COc1ccccc1CNC(=O)CCn1c(=O)c2ccccc2n(CC(=O)Nc2ccc(C)cc2)c1=O | inactive: -31.3% |
| Cn1nnnc1SCCCNCc1ccc(-c2ccc(Br)cc2)o1 | inactive: -18.2% |
| Cc1ccc2oc(=O)c3cc(C(=O)N4CCN(c5ccccc5)CC4)sc3c2c1 | inactive: -2.96% |
| COC(=O)c1cc2oc3ccccc3c2n1Cc1cccc(C)c1 | inactive: -1.07% |

| SMILES | activity change, negative = inhibition |
| --- | --- |
| CN(C)S(=O)(=O)c1ccc2c(c1)N(CC(=O)NCc1ccccc1)C(=O)C1CCCCN21 (stereo not given) | inactive: 2.56% |
| Cc1ccccc1CCNC(=O)c1ccc2c(c1)c(C)c(C)n2C | inactive: -5.23% |
| Cc1ccc(NC(=O)CSc2nc3ccccc3nc2Cc2ccccc2F)cc1F | inactive: 0% |
| Cc1nn(S(=O)(=O)c2ccc(C(C)C)cc2)c(C)c1S(=O)(=O)N1CCCCCC1 | inactive: -0.392% |
| COc1ccc(-c2nsc(NC(=O)COc3ccc(C)c(C)c3)n2)cc1 | inactive: 3.14% |
| CCc1ccccc1NC(=O)C1(S(=O)(=O)c2ccc(Cl)cc2)CC1 | inactive: -0.714% |
| Cc1ccc(OCC(=O)Nc2ccc(Cl)c(-c3nc4ncccc4o3)c2)cc1C | inactive: -11.7% |
| Cc1cc(C)cc(NC(=O)CN2C(=O)CSc3ccc(S(=O)(=O)N(C)C)cc32)c1 | inactive: 5.64% |
| CCOC(=O)c1c(C)oc2ncnc(Nc3ccc(F)cc3Cl)c12 | inactive: 3.59% |
| COc1ccc(-c2oc3ncn4nc(-c5cccc(C)c5)nc4c3c2-c2ccc(OC)cc2)cc1 | inactive: -9.5% |
| COc1cc(C(=O)Nc2nnc(S(=O)(=O)N(C)c3ccccc3)s2)cc(OC)c1OC | inactive: 3.76% |
| Cc1ccc(CN2C(=O)c3ccccc3Sc3ccc(C(=O)NC4CCCCC4)cc32)cc1 | inactive: 7.47% |
| COc1ccccc1CNC(=O)CS(=O)(=O)c1cccc2nsnc12 | inactive: -0.48% |
| COc1cc(C(=O)NCC(c2ccc(N(C)C)cc2)N2CCc3ccccc32)cc(OC)c1OC (stereo not given) | inactive: 23.9% |
| Cc1ccc(-c2nc3n(n2)C(c2ccccc2C)C=C(c2ccc(Cl)cc2)N3)cc1 (stereo not given) | inactive: -20.8% |
| COc1ccc(CCNC(=O)c2cc(-c3ccc(C)cc3)nc3n[nH]c(-c4ccccc4)c23)cc1OC | inactive: -0.723% |
| COc1ccc(OC)c(NC(=O)CCn2cnnn2)c1 | inactive: 0.393% |
| COc1ccc(CNC(=O)c2cc3c(=O)[nH]c4ccc(C)cc4c3s2)c(OC)c1 | inactive: -1.2% |
| O=C(NC1CC(=O)N(c2ccc(F)cc2)C1)c1cccs1 (stereo not given) | inactive: 2.55% |
| O=C(CSc1ncc(CO)n1Cc1ccccc1)Nc1nc2ccccc2s1 | inactive: -13.7% |
| Cc1ccn2c(Nc3ccc(F)cc3)c(-c3ccc(C)o3)nc2c1 | inactive: -0.522% |
| COc1ccc(CNC(=O)C2CCN(c3nc4ccccc4[nH]3)CC2)c(OC)c1 | inactive: 0% |
| COc1cc(CN(C(=O)COc2ccc(Br)cc2)c2ccccn2)cc(OC)c1OC | inactive: -18.9% |
| COC(=O)c1cccc(NC(=O)C2CCN(S(=O)(=O)Cc3ccccc3)CC2)c1C | inactive: -3.74% |

| SMILES | activity change, negative = inhibition |
| --- | --- |
| CCCCOc1ccc(OC(=O)c2sc3ncn(Cc4cccc(F)c4)c(=O)c3c2C)cc1 | inactive: -4.66% |
| COc1cc2nc(SCc3ccc(Cl)cc3)n3nc(CCn4nc(C)cc4C)nc3c2cc1OC | inactive: -4.28% |
| Cc1nn(C(=O)c2ccc(Cl)cc2)c(C)c1Sc1ccc(Cl)cc1 | inactive: 7.03% |
| CC(=O)c1sc2c(c1C)c(=O)n(-c1ccc(Cl)cc1)c(=O)n2Cc1cc(=O)n2cc(Cl)ccc2n1 | inactive: -0.635% |
| CCCSc1nc2sc3c(c2c(=O)n1-c1ccccc1)CCC(C)C3 (stereo not given) | inactive: 10.9% |
| Cc1cc(NC(=O)CSc2nc(-c3ccccc3F)nc3c2c(=O)n(C)c(=O)n3C)no1 | inactive: 0.201% |
| Cc1cccc(CSc2ncccc2C(=O)O)c1 | inactive: 11% |
| CCOc1ccccc1NC(=O)Cn1c(=O)n(C(C)C)c(=O)c2oc3ccccc3c21 | inactive: -0.504% |
| COc1ccc(-n2c(=O)c3ccc(C(=O)NCc4ccc(C)cc4)cc3n(Cc3ccc(Cl)cc3)c2=O)cc1 | inactive: -15.1% |
| COc1ccc(-n2nc3c(N4CCCC(C(=O)NCCc5ccccc5C)C4)nnc(C)c3c2C)cc1 (stereo not given) | inactive: -5.23% |
| COCCn1c(C)cc(O)c(C(c2ccc(F)cc2)N2CCC(C)CC2)c1=O (stereo not given) | inactive: 9.15% |
| Cc1ccc(N(CC(=O)Nc2ccc(C)c(Cl)c2)S(=O)(=O)c2cccs2)cc1 | inactive: -8.55% |
| COc1cccc(NC(=O)Cn2c(=O)n(-c3ccccc3)c(=O)c3c2c2cc(OC)ccc2n3C)c1 | inactive: -6.15% |
| O=S(=O)(c1ccc(-c2cnc(C3CC3)o2)cc1)N1CCN(c2ccccc2)CC1 | inactive: 0% |
| CC1=C(C(=O)OC2CCCC2)C(c2ccccc2C(F)(F)F)CC(=O)N1 (stereo not given) | inactive: 1.03% |
| CCOc1ccccc1NC(=O)c1c(NC(=O)Cc2ccc(OC)cc2)sc2c1CCC2 | inactive: -1.25% |
| CCc1cccc(NC(=O)c2ccc3c(c2)c(C)c(C)n3Cc2ccc(F)cc2)c1 | inactive: -0.426% |
| Cc1ccc(OCC(=O)Nc2cccc(C(=O)OCc3cc(=O)n4c(C)csc4n3)c2)cc1 | inactive: 1.09% |
| Cc1ccccc1OCC(=O)OCc1cc(=O)n2nc(-c3cccs3)sc2n1 | inactive: 2.06% |
| COc1ccccc1CNC(=O)c1nnn(CC(=O)Nc2c(C)cccc2C)c1N | inactive: 4.52% |
| Cn1c(C(=O)Nc2ccc(OC(F)(F)F)cc2)cc2c(=O)n3ccccc3nc21 | inactive: -1.65% |
| CC(=O)c1ccc(N2CCN(c3ncnc4c3cnn4-c3cc(Cl)ccc3C)CC2)cc1 | inactive: -0.108% |
| Cc1ccc(CNC(=O)CN2N=C(c3ccccc3)CCC2=O)cc1 | inactive: 3.42% |
